Reference: ChEMBL document CHEMBL1201862, “PubChem BioAssay data set” (2004)
Values joined by “and” are separate entries in the source; they are usually repeats but may differ in a detail not shown here. Equal values may be shown once.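 Cultured in 96-well plates, cells were exposed to test compound for 48 hours across five concentrations. GI50 = concentration required for 50% inhibition of growth.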 Active and inactive are the calls of the source. Cut-off read from the data, not from the text of the source: active = GI50 up to about 1.1 µM and inactive = higher.

What follows are molecules tested on NCI-H322M (assay: inhibition of tumour cell growth, NCI panel, 48 h).

| Structure (SMILES) | GI50 |
| --- | --- |
| Nc1c(S(=O)(=O)O)cc2cc(S(=O)(=O)O)ccc2c1/N=N/c1ccc(-c2ccc(/N=N/c3c(N)c(S(=O)(=O)O)cc4cc(S(=O)(=O)O)ccc34)c(S(=O)(=O)O)c2)cc1 | inactive: > 100 µM |
| CC1=CSC(O)(c2ccc(Cl)cc2)c2noc(=O)n21 (stereo not drawn) | inactive: > 100 µM |
| Cn1c(=O)c2c(O)cc(N)nc2n(C)c1=O | inactive: > 100 µM |
| Cc1ccc(C)c(NC(=O)CC2Sc3ccccc3NC2=O)c1 (stereo not drawn) | inactive: 33.1 µM and inactive: 23.7 µM |
| C[N+](C)(C)CC1CCCc2ccccc2C1=O (stereo not drawn) | inactive: 18 µM |
| C[C@@H]1CC[C@@]2(NC1)O[C@H]1C[C@H]3[C@@H]4CC[C@H]5C[C@@H](O)CC[C@]5(C)[C@H]4CC[C@]3(C)[C@H]1[C@@H]2C | inactive: 60.8 µM |
| Cc1ccccc1NC(=O)CC(=O)N1N=C(N2c3ccccc3Sc3ccccc32)CC1c1ccccc1 (stereo not drawn) | inactive: > 100 µM |
| CCOC(=O)c1cn2c(n1)sc1cccc(C)c12 | inactive: > 100 µM |
| Cc1cccc(NC(=O)C(=O)C2C(=O)NC(=O)NC2=O)c1C | inactive: > 100 µM |
| NC1N=C(c2ccc(Cl)cc2)C2=C(N1)c1ccccc1CC2 (stereo not drawn) | inactive: 20.8 µM |
| COC(=O)c1cc(Br)c(C(=O)C(Cl)(Cl)Cl)[nH]1 | inactive: > 100 µM |
| Cc1ccccc1/N=N/c1c(O)ccc2ccccc12 | inactive: > 100 µM |
| NC(=O)C(=CNC(N)=S)C(N)=O | inactive: > 100 µM |
| CSc1ncnc2c1ncn2C1CC(Oc2ccc(C)cc2)C(COc2ccc(C)cc2)O1 (stereo not drawn) | inactive: > 100 µM |
| COC(=O)c1c(C)[nH]c2c1C(=O)C(=O)c1nc(C)c(C)nc1-2 | inactive: 10.2 µM |
| O=c1[nH]c(=O)n(C/C=C/CO)nc1Br | inactive: > 100 µM |
| C=C(C#N)C1OCC2OC(C)(C)OC21 (stereo not drawn) | inactive: 43.5 µM |
| COc1ccc(/C(=N/NC(N)=O)C(c2ccc(OC)cc2)C2C(=O)Oc3ccccc32)cc1 (stereo not drawn) | inactive: > 100 µM |
| c1ccc(COc2ncccc2C2SCCCS2)cc1 | inactive: > 100 µM |
| COC(=O)N/N=C/C(=C/Nc1ccccc1)[N+](=O)[O-] | inactive: > 100 µM |
| COc1cccc(CCn2c(N)c(C(=O)O)c3ccc([N+](=O)[O-])cc3c2=O)c1 | inactive: 48.1 µM |
| Cc1[nH]c2ccccc2c1/C=N/NC(=O)c1cccc(I)c1 | inactive: 24.7 µM |
| COc1cccc2c1C(=O)c1ccc3cc(CCl)cc(O)c3c1C2=O | active: 0.457 µM |
| O=c1[nH]nc(Cc2ccc([N+](=O)[O-])cc2)n1CCO | inactive: > 100 µM |

| Structure (SMILES) | GI50 |
| --- | --- |
| N=C(N)Nc1nc2cc(N)ccc2o1 | inactive: > 100 µM |
| COc1ccc(N2C(=O)C3ON(C(C(N)=O)c4ccccc4)C(c4ccc(-c5ccccc5)cc4)C3C2=O)cc1 (stereo not drawn) | inactive: > 50 µM |
| COC(=O)c1ccc(Nc2nc3[nH]cnc3c(=O)[nH]2)cc1 | inactive: 88.1 µM |
| COC(=O)C(C(=O)Cc1ccccc1[N+](=O)[O-])C(=O)OC | inactive: > 100 µM |
| O=C(/C=C/c1ccccc1)CSc1nc[nH]n1 | inactive: > 100 µM |
| CCC(=O)NCC1(c2c[nH]c3ccccc23)SCCS1 | inactive: > 100 µM |
| COc1c(/C=C/C(C)(C)O)cc(C2CC(=O)c3c(O)cc(O)cc3O2)cc1CC=C(C)C (stereo not drawn) | inactive: 8.83 µM |
| C/C(CC(=O)Nc1cc(Cl)c(Cl)cc1Cl)=N\NS(=O)(=O)c1ccc(C)cc1 | inactive: 54.7 µM |
| CCN(CC)c1ccc(NC(=S)NN(C)C)cc1 | inactive: > 10 µM |
| COc1cc(/C=C/C(=O)c2sc(Nc3ccccc3)nc2C)ccc1O | inactive: 43.9 µM |
| O=[N+]([O-])c1cccc(/N=C2\c3ccccc3CN2c2cccc([N+](=O)[O-])c2)c1 | inactive: > 100 µM |
| CC1(C)C(=O)C(C)(C)C1=NNC(N)=S | inactive: > 100 µM |
| CC(CS(=O)(=O)Cc1ccccc1)C(N)=O (stereo not drawn) | inactive: > 100 µM |
| CCn1c(=O)c2cn[nH]c2n(C)c1=O | inactive: > 100 µM |
| Cc1ccc(Cl)c2c(=O)c3ccc(N)cc3sc12 | inactive: 25.1 µM |
| CC(=O)N1N=C(c2cc(C)ccc2O)CC1c1cccc(Cl)c1 (stereo not drawn) | inactive: 24.8 µM |
| CSC(C1c2ccccc2N(C)c2[nH]c(=O)n(C)c(=O)c21)S(=O)(=O)c1ccc(C)cc1 (stereo not drawn) | inactive: 54.1 µM |
| COc1c2ccccc2c(OC)c2nc(C)ccc12 | inactive: > 100 µM |
| CSc1c(C#N)c(S)n(-c2ccc(Cl)cc2)c(=O)c1C#N | inactive: > 100 µM |
| COC(=O)N/N=C(/CCC(=O)Nc1ccc(C)c(C)c1)CC(=O)C(C)(C)C | inactive: > 100 µM |
| Nc1nc(Cl)cc(NCC2(CO)CC(CCCCc3ccccc3)C2)n1 (stereo not drawn) | inactive: 92.9 µM |
| COC(=O)c1cc(O)c(O)c(O)c1-c1c(O)c(O)c(O)c(SC[C@H](NC(=O)OCc2ccccc2)C(=O)OCc2ccccc2)c1C(=O)OC | inactive: 30 µM |
| COC(=O)/C=C1/OC(c2ccc(Br)cc2)=C(Br)C1=O | inactive: 15.1 µM |
| C=C1CN2CCc3c([nH]c4ccccc34)C2CC1CC(=O)N(C)C (stereo not drawn) | inactive: > 309 µM |

| Structure (SMILES) | GI50 |
| --- | --- |
| Nc1nc(Cl)c(N)c(NCC2(CO)CC(O)C2)n1 (stereo not drawn) | inactive: > 100 µM |
| Brc1ccc2c(c1)[C@H]1CCc3c([nH]c4ccccc34)[C@H]1N2 | inactive: 11.1 µM |
| CN(C)c1ccc2c(NCCCCCCNc3ccnc4cc(N(C)C)ccc34)ccnc2c1 | inactive: 19 µM |
| CCOc1ccc(/C=N\N2C(=O)c3ccccc3C2=O)cc1 | inactive: > 100 µM |
| COc1ccc(N2C(=O)C3c4[nH]c5ccccc5c4C4CCC(C(C)(C)C)CC4C3C2=O)cc1OC (stereo not drawn) | inactive: 30.1 µM |
| CSC1(CC(=O)N2CCCCC2)C(=O)Nc2ccccc21 (stereo not drawn) | inactive: > 100 µM |
| COc1cccc2c(N)c3cccc(C(=O)NCCN(C)C)c3nc12 | active: 0.119 µM |
| COc1cc2c(cc1O)-c1c(cnn1-c1ccc([N+](=O)[O-])cc1)CCC2 | inactive: 17.5 µM |
| CC(C)Cc1cccc(C(C)C)c1NC(=O)CCC(=O)N/N=C1\C(=N/NC(=O)CCC(=O)Nc2c(C(C)C)cccc2C(C)C)C(c2ccc3c(c2)OCO3)Oc2ccccc21 (stereo not drawn) | inactive: > 100 µM |
| O=c1[nH]c2ccc(CC(=S)N3CCOCC3)cc2o1 | inactive: > 100 µM |
| Cc1c(C(=O)Nc2ccccc2)nnn1-c1ccnc2cc(C(F)(F)F)ccc12 | inactive: 69.3 µM |
| O=C(c1ccccc1)C1(Br)S(=O)(=O)OCCOS1(=O)=O | inactive: > 100 µM |
| O=C1C(Cl)C(c2cc(Br)cc(Br)c2O)N1n1cnc2ccccc2c1=O (stereo not drawn) | inactive: 15.2 µM |
| Clc1ccc(CNc2nc3ccccc3nc2-c2cccs2)c(Cl)c1 | inactive: > 100 µM |
| S=C1CC(c2ccccc2)Sc2ccccc2N1 (stereo not drawn) | inactive: 60 µM |
| C=CCOC(=O)/C(=C\c1ccc(OC)c(OC)c1)c1ccc(OC)c(OC)c1 | inactive: > 100 µM |
| CC(=O)NC1=C(NCCO)C(=O)c2ccccc2C1=O | inactive: > 50 µM |
| Cc1ccc(S(=O)(=O)Nn2c(-c3ccccc3)c(C#N)c(-c3ccc([N+](=O)[O-])cc3)c(C#N)c2=O)cc1 | inactive: > 100 µM |
| O=C(CCc1ccccc1)ON1C(=S)C(c2ccccc2)(c2ccccc2)N=C1Sc1ccccc1 | inactive: 61.1 µM |
| CSC(=S)Nc1cc(C)cc(C)n1 | inactive: > 31.6 µM |
| CC1=C(C(=O)OCCc2ccc([N+](=O)[O-])cc2)C(c2ccccc2[N+](=O)[O-])C(C(=O)OC(C)C)=C(C)N1 (stereo not drawn) | inactive: 35.8 µM |
| Cc1c2cnccc2c(C)c2c1c1ccccc1n2CC1CO1 (stereo not drawn) | inactive: 1.54 µM |
| O=C1Nc2ccccc2/C1=C1/Nc2ccccc2/C1=N\OCCNCC(O)C(O)C(O)C(O)CO (stereo not drawn) | inactive: 17.9 µM |
| COC(=O)c1ccccc1CC1Cc2ccc3c(c2C1)CCC3 (stereo not drawn) | inactive: 34.3 µM |

| Structure (SMILES) | GI50 |
| --- | --- |
| Cc1cc(=O)n2c3c(c4c(cc13)c(CN(C)C)cc(=O)n4C)OC2 | inactive: 16.6 µM |
| CN1CCc2c(sc3ncn(Nc4ccc(Cl)cc4)c(=N)c23)C1 | inactive: > 100 µM |
| CSc1ncc2c(C#N)c3sc4ccccc4n3c(=O)c2n1 | inactive: > 100 µM |
| CC[P+](C)(Cc1ccccc1)c1ccccc1.O=C(OC(C(=O)[O-])C(OC(=O)c1ccccc1)C(=O)O)c1ccccc1 (stereo not drawn) | inactive: > 100 µM |
| CC1=C(C)C(=O)C(C2=C(C3=CC(=O)C(C)=C(C)C3=O)C(=O)C(C)=C(C)C2=O)=CC1=O | inactive: 22.4 µM |
| C=CCNC(=S)N/C=C(\C(=O)OCC)C(=O)C(=O)OCC | inactive: > 100 µM |
| N#Cc1sc2c(c1OC(=O)c1ccccc1)c(=O)n(-c1ccccc1)c(=S)n2-c1ccccc1 | inactive: 27.4 µM |
| C[C@@]1(O)C2CC3CC1(c1ccccc1)CC(/C3=N/O)/C2=N\O (stereo partly drawn) | inactive: > 100 µM |
| CCOC(=O)NC(=S)NC(C)c1ccccc1 (stereo not drawn) | inactive: > 100 µM |
| COc1ccc(C2CC(c3cc4c(C)c(C(=O)c5ccccc5)oc4cc3O)=Nc3ccccc3S2)cc1OC (stereo not drawn) | inactive: > 100 µM |
| CCOC(=O)NC(=O)c1cn(CCN2CCN(C(=O)CNC(=O)CNC(=O)Cn3cc(C(=O)NC(=O)OCC)c(=O)[nH]c3=O)CC2)c(=O)[nH]c1=O | inactive: > 100 µM |
| CCCCCCCCCCCCOP(=O)(O)OP(=O)(O)OCC1OC(n2ccc(N)nc2=O)CC1O (stereo not drawn) | inactive: > 100 µM |
| CC1(C)[C@@H]2C[C@H]1c1cnc(-c3ccccn3)cc1C2[C@@H]1c2cc(-c3ccccn3)ncc2[C@@H]2C[C@H]1C2(C)C (stereo partly drawn) | inactive: 71.9 µM |
| CCOC(=O)/C=C1/C(CCCOCc2ccccc2)C2CCCC23CC2(CCN13)OCCO2 (stereo not drawn) | inactive: 26.9 µM |
| CC12CCC[C@@](C)(C(=O)OC3OC(CO)C(O)C(O)C3O)[C@H]1CCC13CC4CC(OC4(CO)[C@H]1O)[C@@H]23 (stereo partly drawn) | inactive: > 100 µM |
| O=C(O)C1NCCc2c1[nH]c1ccccc21 (stereo not drawn) | inactive: > 100 µM |
| Cc1cc(-c2nc3c(O)cccc3s2)ccc1N | inactive: 26.9 µM |
| CC(=O)Nc1ccc(-c2nc3ccccc3s2)cc1Br | inactive: 55 µM |
| CCO[C@@H]1OC(=O)[C@](C)(C(C)=O)[C@@H]1C | inactive: 52.7 µM |
| NS(=O)(=O)c1ccc(CNc2nc(-c3cccs3)nc3ccc(I)cc23)cc1 | inactive: 13.4 µM |
| Oc1cc(-c2ccccc2)nc2ncccc12 | active: 0.681 µM |
